The campaign covered roughly 310,000 compounds. About 2,200 (0.71%) showed an effect of 50% or more. The effect is printed as a negative number. The list shows a part of the results.
target: human ether-à-go-go-related gene (hERG) potassium channel (human, UniProt Q12809); assay: primary screen, population patch clamp on CHO cells stably expressing hERG
Sequence (Q12809 whole entry, looked up): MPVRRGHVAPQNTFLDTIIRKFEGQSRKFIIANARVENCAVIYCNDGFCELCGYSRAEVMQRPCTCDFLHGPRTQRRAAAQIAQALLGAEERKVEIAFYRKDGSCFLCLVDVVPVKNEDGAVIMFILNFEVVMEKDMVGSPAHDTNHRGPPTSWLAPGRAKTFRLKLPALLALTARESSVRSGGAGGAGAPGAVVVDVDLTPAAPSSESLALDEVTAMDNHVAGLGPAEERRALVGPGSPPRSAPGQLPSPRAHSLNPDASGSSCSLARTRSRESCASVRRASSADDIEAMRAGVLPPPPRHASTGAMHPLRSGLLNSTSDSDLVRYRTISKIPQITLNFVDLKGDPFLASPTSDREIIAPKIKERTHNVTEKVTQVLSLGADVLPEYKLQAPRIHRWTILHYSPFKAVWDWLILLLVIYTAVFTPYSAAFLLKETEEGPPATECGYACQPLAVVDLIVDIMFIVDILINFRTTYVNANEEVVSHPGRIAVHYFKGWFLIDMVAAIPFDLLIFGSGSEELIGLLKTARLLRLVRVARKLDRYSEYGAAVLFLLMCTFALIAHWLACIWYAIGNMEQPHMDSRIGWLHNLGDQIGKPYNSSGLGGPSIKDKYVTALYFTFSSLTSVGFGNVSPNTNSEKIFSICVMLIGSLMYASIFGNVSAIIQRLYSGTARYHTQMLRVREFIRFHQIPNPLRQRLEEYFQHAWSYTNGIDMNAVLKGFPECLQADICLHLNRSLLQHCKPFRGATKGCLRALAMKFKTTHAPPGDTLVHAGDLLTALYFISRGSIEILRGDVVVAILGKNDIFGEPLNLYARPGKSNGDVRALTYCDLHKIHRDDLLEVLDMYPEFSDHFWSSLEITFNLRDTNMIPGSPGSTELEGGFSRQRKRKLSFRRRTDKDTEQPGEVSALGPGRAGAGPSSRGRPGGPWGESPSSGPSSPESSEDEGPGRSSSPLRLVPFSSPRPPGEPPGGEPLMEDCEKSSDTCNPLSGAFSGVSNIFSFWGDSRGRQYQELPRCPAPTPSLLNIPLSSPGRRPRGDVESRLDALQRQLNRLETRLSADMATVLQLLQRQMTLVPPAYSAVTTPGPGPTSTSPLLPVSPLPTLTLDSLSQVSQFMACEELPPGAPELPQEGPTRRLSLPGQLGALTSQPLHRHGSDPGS

Structure (SMILES)	hERG current change (%, negative = inhibition) at 1uM [%]
Cc1ccc(C(=O)Nc2ccc(N3CCN(C(=O)c4ccco4)CC3)cc2)c(Cl)c1	11.2
CCOC(=O)CSC1=N/C(=C\c2cc(OC)c(OC)c(OC)c2)C(=O)N1C	2.6
Cc1ccc(NC(=O)CN2C(=O)CCSc3ccc(S(=O)(=O)N4CCCC4)cc32)cc1C	14.8
CC(NC(=O)c1ccccc1)C(=O)OCC(=O)c1ccc(Br)cc1 (stereo not shown)	2.14
Cc1nc2ccccc2cc1C(=O)N/N=C/c1cccs1	11.4
Cc1ccc(C(=O)OCC(=O)Nc2ccccc2)cc1NC(=O)c1ccco1	12.3
O=C(NCc1ccc2c(c1)OCO2)C12CN(Cc3ccccc3)CC1C(c1cccc([N+](=O)[O-])c1)=NO2 (stereo not shown)	11.3
Cc1cc(C)c2c(=O)[nH]n(C(C)C)c2n1	13.8
COc1ccc2c3c1OC1CC(O)C=CC31CCN(C)C2 (stereo not shown)	2.71
C=C1Cn2c(nnc2-c2ccc(Cl)cc2)S1	-4.33
CC1(c2ccc(Cl)cc2)NC(=O)N(CC(=O)Nc2ccc(F)cc2)C1=O (stereo not shown)	-3.15
Nc1ccc2ncccc2c1	7.7
Cc1ccc(CSc2nnc(SCC(=O)N/N=C/c3ccccc3OCC(=O)O)s2)cc1	4.62
c1ccc(-c2csc(NC3=NCCCCC3)n2)cc1	-2.25
O=C(CSc1nnc(-c2cccnc2)n1Cc1ccco1)N1CCc2ccccc21	-14.3
O=C(COc1ccc(S(=O)(=O)N2CCCCC2)cc1)NC1CCCCC1	9.42
O=C(CS(=O)CC(=O)Nc1cccnc1)Nc1ccc(F)cc1 (stereo not shown)	21.6
CCOC(=O)C1(CCc2ccccc2)CCN(C(=O)CCc2cnccn2)CC1	-8.1
COc1ccc([N+](=O)[O-])c(S(=O)(=O)c2ccc(Cl)cc2)n1	15
COc1cc2[nH]c(=S)n(Cc3ccc(C)cc3)c(=O)c2cc1OC	17.6
CCN1C(=O)Cc2cc(S(=O)(=O)NCCc3ccccc3)ccc21	16.1
COc1cc(/C=C(\C#N)c2nc3ccccc3[nH]2)cc(Br)c1OCc1ccc(F)cc1	-3.28
CCC(C)(C)NC(=O)Nc1cc(Cl)ccc1OC	11.2
CC1=C(C(=O)Nc2ccc(C(=O)NC(C)c3ccccc3)cc2)SCCO1 (stereo not shown)	12.2
O=S1(=O)CCOC[C@H](c2ccccc2)N1Cc1cccc(Cl)c1	15.1

— publication PMC4336329 (PLoS ONE, 2015)
